According to PubChem BioAssay AID463173 (ICCB-Longwood Screening Facility, Harvard Medical School, 2010):
Hit rate of the full screen: of about 52,000 compounds, about 1,700 (3.3%) were called active. Cut-off read from the data, not from the text of the source: active = survival mostly below about 52% (no sharp cut-off); inactive = mostly above about 56%. The list shows a part of the results.

What follows are compounds tested on Wild type (assay: growth inhibition of S. aureus wild type versus tarO mutant, primary screen, teichoic acid synthesis inhibitors, RN4220, OD600 (AID 463173)). Details: S. aureus RN4220 wild type/DeltatarO growth, OD600, 18 h, hits give low values, screened at 18.75 µg/mL (by protocol).

How did the survival turn out when `Cc1cc(C)c2c(=O)cc(CSc3n[nH]c(C)n3)[nH]c2c1` was run?
Its survival is inactive: 74%.

`O=c1[nH]cc(N2CCOCC2)c(=O)[nH]1` was tested. Which survival did it give?
The survival was inactive: 108%.

How did the survival turn out when `COc1ccc(CCC(=O)NC2CC(=O)N(c3ccc(OC)cc3)C2)cc1` (stereo unspecified) was run?
Its survival is inactive: 79%.

How did the survival turn out when `CCc1ccccc1NC(=O)c1noc2c1CC(C(C)(C)C)CC2` (stereo unspecified) was run?
The survival was active: -11%.

`CCN(C(=O)c1cn(CC)c(=O)c2cc(OC)c(OC)cc12)c1ccccc1F` was tested. Which survival did it give?
The survival was inactive: 146%.

Which survival does the source give for `Cc1cccc(NC(=O)C(=O)NCCc2csc(-c3ccc(F)cc3)n2)c1C` here?
Its survival is inactive: 75%.

`O=C(CSCc1ccc(F)cc1)N1CCc2c([nH]c3ccccc23)C1c1ccc(Cl)cc1` (stereo unspecified) was tested. Which survival did it give?
Its survival is inactive: 84%.

Which survival does the source give for `COc1cc(C(=O)Nc2ccccc2-c2nc(-c3ccc(C)cc3)no2)cc(OC)c1OC` here?
Its survival is inactive: 85%.

How did the survival turn out when `Cc1cc(N2CCCCC2)nc2ccc(NC(=O)CCC(=O)N3CCN(c4ccccc4)CC3)cc12` was run?
The survival was inactive: 75%.

For `O=C(CSc1ncccn1)NCCC1=CCCCC1`, which survival is on record?
The survival was inactive: 112%.

`Cc1cccc(N2CCN(C(=O)c3ccc(Nc4nc5ccccc5n5nnnc45)cc3)CC2)c1C` was tested. Which survival did it give?
Its survival is inactive: 97%.

With `CCOC(=O)c1ccc(NC(=O)C2=C(C)Nc3nc(CCCO)nn3C2c2ccc(OC)cc2)cc1` (stereo unspecified) as the compound, how does the survival read?
Its survival is inactive: 85%.

How did the survival turn out when `CC1=C(C(=O)Nc2cc(Cl)ccc2C)C(c2cccs2)n2ncnc2N1` (stereo unspecified) was run?
Its survival is inactive: 128%.

Which survival does the source give for `CC(=O)NC(Cc1ccccc1)C(=O)NC1CCN(c2nnnn2-c2ccccc2)CC1` (stereo unspecified) here?
The survival was inactive: 87%.

How did the survival turn out when `COc1ccc(NC(=O)CN2C(=O)c3cccnc3Sc3ccccc32)cc1OC` was run?
The survival was inactive: 81%.

With `CCOc1ccccc1-n1nnnc1SCC(=O)c1cc(Cl)ccc1OC` as the compound, how does the survival read?
Its survival is inactive: 91%.

With `COc1ccc(CCNC(=O)C(C)n2c(=O)cc(-c3ccccc3)c3c(C)nn(C)c32)cc1OC` (stereo unspecified) as the compound, how does the survival read?
Its survival is inactive: 69%.

`CCSc1nc(-c2ccccc2F)nc2c1Cc1c(CO)cnc(C)c1O2` was tested. Which survival did it give?
The survival was inactive: 86%.

For `COc1cc(C2C(=O)N(C3CCCCC3)CC(=O)N2C2CCCCC2)ccc1OC(C)C` (stereo unspecified), which survival is on record?
The survival was inactive: 83%.

How did the survival turn out when `CC1CCN(c2nc3ccc(C(=O)N4CCN(c5ccccc5)CC4)cc3s2)CC1` was run?
Its survival is inactive: 64%.

How did the survival turn out when `CCOc1ccc(N(CC)C(=O)c2cc3c(s2)-c2ccccc2OC3)cc1` was run?
Its survival is inactive: 88%.

For `N#CCCNc1nncs1`, which survival is on record?
Its survival is inactive: 107%.

How did the survival turn out when `Cc1ccc(-c2nc3sccn3c2Nc2ccc(C)c(C)c2)cc1` was run?
The survival was inactive: 73%.

With `COc1cccc(N2CCN(C(=O)c3nn(C)c4c3CSc3ccc(C)cc3-4)CC2)c1` as the compound, how does the survival read?
Its survival is inactive: 121%.

Which survival does the source give for `CCC(=O)N1CCc2cc(CNC(=O)c3ccc(F)cc3)ccc21` here?
Its survival is inactive: 73%.

`Cc1ccc(SCc2nc(-c3ccc(C(=O)NCCc4ccc(Cl)cc4)cc3)oc2C)cc1` was tested. Which survival did it give?
The survival was active: -4%.
